# According to the supplement of paper PMC8728848:
# This is one part of the list.
# B1: SialidaseA (Arthrobacter ureafaciens) (protein)
# chain: MRSNSTSAPSLVRRAATGVLTCAVSIGLLAGLGLPAQAAPTPPNSPTLPPGSFSETNLAADRTAANFFYRIPALTYLGNDVVLAAWDGRPGSAADAPNPNSIVQRRSTDGGKTWGPVQVIAAGHVADASGPRYGYSDPSYIYDAEANKVFAFFVYSKDQGFGGSQFGNDDADRNVISSAVIESSDAGVTWSQPRLITSVTKPGTSKTNPAAGDVRSNFASSGEGIQLKYGPHKGRLIQQYAGDVRQADGSNKIQAYSVYSDDHGVTWHKGANVGDRMDENKTVELSDGRVLLNSRDNANRGYRKVAVSTDGGATYGPVSQDTELPDPANNGAIARMFPNAAQGSADAKKLIFTNANSKTGRENVSARVSCDDGETWPGVRTIRSGFSAYSTVTRLADGKFGVLYEGNYTDNMPFATFDDAWLNYVCAPLAVPAVNIAPSATQEVPVTVTNQEATTLSGATATVYTPSGWSATTVPVPDVAPGASVTVTVALTAPADASGPRSLNAAFTTADGRVSQFTFTATTPVAPQVGLTITGSAPARDVAANPYQAGDVLGYTLNVKSTANVAANSVPLTGTFDSGFLPPAAPNCRYNNLAAGASYNCTTAKHTITAADMERGYFVPEATFSITSTTTPSLTKTVQFTGAAVALRDGLISADISGARTDVGRDLATRPYAAGELVPYAFTVKNTSPFVEQVVPTAGNFSPFLPAGAGNCRYLSLPAGQSYECATPRHAVTAEEVEQGFFVPDTTWEVSAAGQSTRTYRINGGEVDLLVRDAALSATVVAEWKDADGDRFASAGDPVTFTYTVGNAGNVALTGLEAPDAGISLPFLAPGDTATATREHVLTAADVAGGSLAASAFEATARNGSKEVTATAEGQPLELKVQPAQPSKEPELTVQDLEDQTPPFDLGTAFKYRTGQKVSLAGLEYGQWYYVYLNKTGYRLGWMFPTTGDTVEFILPPEVRNGRDDVVVLDKDGRRVSFDRLQVTPKGEKI
# Assays:
# Test in all cases: glycan array binding signal (z-score within array); higher = stronger binding
# Details in all cases: glycan notation: IUPAC condensed, linker removed
# Fuc(a1-2)Gal = biological target: Fuc(a1-2)Gal
# Method in brief: (§1)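 The binding signal is a Z-score computed within each array. Data were drawn from 3228 arrays in the Consortium for Functional Glycomics database, restricted to those with a known protein sequence. Scores were averaged over arrays of the same protein sequence at different concentrations or buffers, and over linkers, and negative values can be taken as non-binding.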
# Fuc(a1-2)Gal(b1-3)GalNAc = biological target: Fuc(a1-2)Gal(b1-3)GalNAc
# Method in brief: as §1
# [1] = biological target: Fuc(a1-2)Gal(b1-3)GalNAc(a1-3)[Fuc(a1-2)]Gal(b1-4)Glc
# Method in brief: as §1
# [2] = biological target: Fuc(a1-2)Gal(b1-3)GalNAc(a1-3)[Fuc(a1-2)]Gal(b1-4)GlcNAc
# Method in brief: as §1
# [3] = biological target: Fuc(a1-2)Gal(b1-3)GalNAc(b1-3)Gal
# Method in brief: as §1
# [4] = biological target: Fuc(a1-2)Gal(b1-3)GalNAc(b1-3)Gal(a1-4)Gal(b1-4)Glc
# Method in brief: as §1
# [5] = biological target: Fuc(a1-2)Gal(b1-3)GalNAc(b1-4)[Neu5Ac(a2-3)]Gal(b1-4)Glc
# Method in brief: as §1
# Fuc(a1-2)Gal(b1-3)GlcNAc = biological target: Fuc(a1-2)Gal(b1-3)GlcNAc
# Method in brief: as §1
# [6] = biological target: Fuc(a1-2)Gal(b1-3)GlcNAc(b1-2)Man(a1-3)[Fuc(a1-2)Gal(b1-3)GlcNAc(b1-2)Man(a1-6)]Man(b1-4)GlcNAc(b1-4)GlcNAc
# Method in brief: as §1
# [7] = biological target: Fuc(a1-2)Gal(b1-3)GlcNAc(b1-2)Man(a1-3)[Fuc(a1-2)Gal(b1-3)GlcNAc(b1-2)Man(a1-6)]Man(b1-4)GlcNAc(b1-4)[Fuc(a1-6)]GlcNAc
# Method in brief: as §1
# [8] = biological target: Fuc(a1-2)Gal(b1-3)GlcNAc(b1-3)Gal(b1-4)Glc
# Method in brief: as §1
# [9] = biological target: Fuc(a1-2)Gal(b1-3)GlcNAc(b1-3)GalNAc
# Method in brief: as §1
# [10] = biological target: Fuc(a1-2)Gal(b1-3)GlcNAc(b1-3)[Fuc(a1-2)Gal(b1-3)GlcNAc(b1-6)]GalNAc
# Method in brief: as §1
# [11] = biological target: Fuc(a1-2)Gal(b1-3)GlcNAc(b1-3)[Gal(b1-4)GlcNAc(b1-6)]Gal(b1-4)Glc
# Method in brief: as §1
# [12] = biological target: Fuc(a1-2)Gal(b1-3)GlcNAc(b1-3)[Neu5Ac(a2-6)Gal(b1-4)GlcNAc(b1-6)]Gal(b1-4)Glc
# Method in brief: as §1
# [13] = biological target: Fuc(a1-2)Gal(b1-3)GlcNAc6S
# Method in brief: as §1
# [14] = biological target: Fuc(a1-2)Gal(b1-3)[Fuc(a1-4)]GlcNAc
# Method in brief: as §1
# [15] = biological target: Fuc(a1-2)Gal(b1-3)[Fuc(a1-4)]GlcNAc(b1-2)Man(a1-3)[Fuc(a1-2)Gal(b1-3)[Fuc(a1-4)]GlcNAc(b1-2)Man(a1-3)]Man(b1-4)GlcNAc(b1-4)GlcNAc
# Method in brief: as §1
# [16] = biological target: Fuc(a1-2)Gal(b1-3)[Fuc(a1-4)]GlcNAc(b1-2)Man(a1-3)[Fuc(a1-2)Gal(b1-3)[Fuc(a1-4)]GlcNAc(b1-2)Man(a1-6)]Man(b1-4)GlcNAc(b1-4)[Fuc(a1-6)]GlcNAc(b1-4)[Fuc(a1-6)]GlcNAc
# Method in brief: as §1
# [17] = biological target: Fuc(a1-2)Gal(b1-3)[Fuc(a1-4)]GlcNAc(b1-3)[Fuc(a1-3)[Gal(b1-4)]GlcNAc(b1-6)]Gal(b1-4)Glc
# Method in brief: as §1
# [18] = biological target: Fuc(a1-2)Gal(b1-3)[Fuc(a1-4)]GlcNAc(b1-3)[Gal(b1-4)GlcNAc(b1-6)]Gal(b1-4)Glc
# Method in brief: as §1
# Fuc(a1-2)Gal(b1-4)Glc = biological target: Fuc(a1-2)Gal(b1-4)Glc
# Method in brief: as §1
# Fuc(a1-2)Gal(b1-4)Glc6S = biological target: Fuc(a1-2)Gal(b1-4)Glc6S
# Method in brief: as §1
# Fuc(a1-2)Gal(b1-4)GlcNAc = biological target: Fuc(a1-2)Gal(b1-4)GlcNAc
# Method in brief: as §1
# [19] = biological target: Fuc(a1-2)Gal(b1-4)GlcNAc(b1-2)Man
# Method in brief: as §1
# [20] = biological target: Fuc(a1-2)Gal(b1-4)GlcNAc(b1-2)Man(a1-3)[Fuc(a1-2)Gal(b1-4)GlcNAc(b1-2)Man(a1-6)]Man(b1-4)GlcNAc(b1-4)GlcNAc
# Method in brief: as §1
# [21] = biological target: Fuc(a1-2)Gal(b1-4)GlcNAc(b1-2)Man(a1-3)[Fuc(a1-2)Gal(b1-4)GlcNAc(b1-2)Man(a1-6)]Man(b1-4)GlcNAc(b1-4)[Fuc(a1-6)]GlcNAc
# Method in brief: as §1
# [22] = biological target: Fuc(a1-2)Gal(b1-4)GlcNAc(b1-2)[Fuc(a1-2)Gal(b1-4)GlcNAc(b1-4)]Man(a1-3)[Fuc(a1-2)Gal(b1-4)GlcNAc(b1-2)Man(a1-6)]Man(b1-4)GlcNAc(b1-4)GlcNAc
# Method in brief: as §1
# [23] = biological target: Fuc(a1-2)Gal(b1-4)GlcNAc(b1-3)Gal(b1-4)GlcNAc
# Method in brief: as §1
# [24] = biological target: Fuc(a1-2)Gal(b1-4)GlcNAc(b1-3)Gal(b1-4)GlcNAc(b1-2)Man(a1-3)[Fuc(a1-2)Gal(b1-4)GlcNAc(b1-3)Gal(b1-4)GlcNAc(b1-2)Man(a1-6)]Man(b1-4)GlcNAc(b1-4)GlcNAc
# Method in brief: as §1
# [25] = biological target: Fuc(a1-2)Gal(b1-4)GlcNAc(b1-3)Gal(b1-4)GlcNAc(b1-3)Gal(b1-4)GlcNAc
# Method in brief: as §1
# [26] = biological target: Fuc(a1-2)Gal(b1-4)GlcNAc(b1-3)GalNAc
# Method in brief: as §1
# [27] = biological target: Fuc(a1-2)Gal(b1-4)GlcNAc(b1-3)[Fuc(a1-2)Gal(b1-4)GlcNAc(b1-6)]GalNAc
# Method in brief: as §1
# [28] = biological target: Fuc(a1-2)Gal(b1-4)GlcNAc(b1-3)[Fuc(a1-3)[Gal(b1-4)]GlcNAc(b1-6)]Gal(b1-4)Glc
# Method in brief: as §1
# [29] = biological target: Fuc(a1-2)Gal(b1-4)GlcNAc(b1-6)GalNAc
# Method in brief: as §1
# [30] = biological target: Fuc(a1-2)Gal(b1-4)GlcNAc6S
# Method in brief: as §1
# [31] = biological target: Fuc(a1-2)Gal(b1-4)[Fuc(a1-3)]GlcNAc
# Method in brief: as §1
# [32] = biological target: Fuc(a1-2)Gal(b1-4)[Fuc(a1-3)]GlcNAc(b1-2)Man(a1-3)[Fuc(a1-2)Gal(b1-4)[Fuc(a1-3)]GlcNAc(b1-2)Man(a1-6)]Man(b1-4)GlcNAc(b1-4)[Fuc(a1-6)]GlcNAc
# Method in brief: as §1
# [33] = biological target: Fuc(a1-2)Gal(b1-4)[Fuc(a1-3)]GlcNAc(b1-2)[Fuc(a1-2)Gal(b1-4)[Fuc(a1-3)]GlcNAc(b1-4)]Man(a1-3)[Fuc(a1-2)Gal(b1-4)[Fuc(a1-3)]GlcNAc(b1-2)Man(a1-6)]Man(b1-4)GlcNAc(b1-4)GlcNAc
# Method in brief: as §1
# [34] = biological target: Fuc(a1-2)Gal(b1-4)[Fuc(a1-3)]GlcNAc(b1-3)Gal(b1-4)[Fuc(a1-3)]GlcNAc
# Method in brief: as §1
# [35] = biological target: Fuc(a1-2)Gal(b1-4)[Fuc(a1-3)]GlcNAc(b1-3)Gal(b1-4)[Fuc(a1-3)]GlcNAc(b1-3)Gal(b1-4)[Fuc(a1-3)]GlcNAc
# Method in brief: as §1
# [36] = biological target: Fuc(a1-2)Gal(b1-4)[Fuc(a1-3)]GlcNAc(b1-3)GalNAc
# Method in brief: as §1
# [37] = biological target: Fuc(a1-2)Gal(b1-4)[Fuc(a1-3)]GlcNAc(b1-3)[Neu5Ac(a2-6)Gal(b1-4)GlcNAc(b1-6)]Gal(b1-4)Glc
# Method in brief: as §1
# [38] = biological target: Fuc(a1-2)Gal3S(b1-4)GlcNAc
# Method in brief: as §1
# [39] = biological target: Fuc(a1-2)Gal6S(b1-3)GlcNAc
# Method in brief: as §1
binder,measurement,setting,value
B1,glycan array binding signal (z-score),Fuc(a1-2)Gal,-0.056
same,glycan array binding signal (z-score),Fuc(a1-2)Gal(b1-3)GalNAc,-0.618
same,glycan array binding signal (z-score),[1],-0.586
same,glycan array binding signal (z-score),[2],-0.506
same,glycan array binding signal (z-score),[3],-0.841
same,glycan array binding signal (z-score),[4],-0.322
same,glycan array binding signal (z-score),[5],1.39
same,glycan array binding signal (z-score),Fuc(a1-2)Gal(b1-3)GlcNAc,-0.414
same,glycan array binding signal (z-score),[6],0.077
same,glycan array binding signal (z-score),[7],-0.16
same,glycan array binding signal (z-score),[8],-0.332
same,glycan array binding signal (z-score),[9],-0.396
same,glycan array binding signal (z-score),[10],-0.453
same,glycan array binding signal (z-score),[11],-0.768
same,glycan array binding signal (z-score),[12],-0.758
same,glycan array binding signal (z-score),[13],-0.849
same,glycan array binding signal (z-score),[14],-0.69
same,glycan array binding signal (z-score),[15],-0.498
same,glycan array binding signal (z-score),[16],-0.524
same,glycan array binding signal (z-score),[17],-0.786
same,glycan array binding signal (z-score),[18],-0.84
same,glycan array binding signal (z-score),Fuc(a1-2)Gal(b1-4)Glc,-0.801
same,glycan array binding signal (z-score),Fuc(a1-2)Gal(b1-4)Glc6S,-0.423
same,glycan array binding signal (z-score),Fuc(a1-2)Gal(b1-4)GlcNAc,-0.44
same,glycan array binding signal (z-score),[19],-0.715
same,glycan array binding signal (z-score),[20],-0.188
same,glycan array binding signal (z-score),[21],-0.135
same,glycan array binding signal (z-score),[22],-0.568
same,glycan array binding signal (z-score),[23],-0.698
same,glycan array binding signal (z-score),[24],1.3
same,glycan array binding signal (z-score),[25],0.023
same,glycan array binding signal (z-score),[26],-0.258
same,glycan array binding signal (z-score),[27],-0.492
same,glycan array binding signal (z-score),[28],-0.604
same,glycan array binding signal (z-score),[29],-0.456
same,glycan array binding signal (z-score),[30],-0.419
same,glycan array binding signal (z-score),[31],-0.312
same,glycan array binding signal (z-score),[32],0.073
same,glycan array binding signal (z-score),[33],0.318
same,glycan array binding signal (z-score),[34],0.217
same,glycan array binding signal (z-score),[35],-0.03
same,glycan array binding signal (z-score),[36],-0.238
same,glycan array binding signal (z-score),[37],-0.44
same,glycan array binding signal (z-score),[38],-0.739
same,glycan array binding signal (z-score),[39],-0.742
